Assay results taken from PubChem BioAssay AID493208 (National Center for Advancing Translational Sciences (NCATS), 2011).
The campaign covered roughly 44,000 compounds. About 340 (0.77%) were called active. About 5% were inconclusive and are not listed. The call rests on the fitted dose curve; in most records, active means well fitted inhibition curve with a large enough effect; inconclusive means small, poorly fitted or top-dose-only effect; inactive means flat fitted curve, though single readings scatter. The list shows a part of the results.

Assay: Acumen qHTS Assay for Inhibitors of the mTORC1 Signaling Pathway in MEF (Tsc2-/-, p53-/-) Cells: Sytravon;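 further: plate controls were DMSO for no effect and rapamycin for full effect; nearly all actives have a fitted effect of over 50% in size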
Conditions: phospho-rpS6 immunofluorescence/PI, 24 h; series mostly up to 38.3 µM; activity change, negative = inhibition: at the top concentration
Method in brief: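 Tsc2-/-, p53-/- MEFs (empty-vector stable line) in DMEM + 10% FBS were treated with compounds 24 h at 37 degree Celsius, fixed, and immunostained for phospho-rpS6 (Alexa-488) with propidium iodide counterstain. Laser-scanning cytometry gave % positive cells, normalized against 7.5 nM rapamycin and DMSO.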

SMILES	activity change, negative = inhibition
CCSc1ncc(Cl)c(C(=O)Nc2c(C(=O)c3ccccc3)oc3ccccc23)n1	inactive: -5.98%
Cc1nc2cc(-c3ccccc3)nn2c(C)c1CCC(=O)N1CCN(c2ccccc2)CC1	inactive: 2.97%
O=C(NCCc1csc(-c2ccc(F)cc2)n1)c1ccc(Br)o1	inactive: 0.419%
Cc1ccccc1CN1CCN(CC(=O)NCc2ccccc2Cl)C1=O	inactive: 10.1%
COc1ccc2oc(-c3ccc(C)c(NC(=O)Cc4ccc(Cl)cc4)c3)nc2c1	inactive: -0.723%
Cc1c(NC(=O)c2cc(=O)c3cc(Cl)ccc3o2)c(=O)n(-c2ccccc2)n1C	inactive: -2.97%
Cn1cnc2c(=O)oc3ccc(S(=O)(=O)N4CCN(c5cccc(Cl)c5)CC4)cc3c21	inactive: -1.56%
Cc1cccc(-c2nc(Cn3c(SCc4cccc(C(F)(F)F)c4)nc4ccncc43)c(C)o2)c1	inactive: -7.14%
Fc1ccc2c(c1)NC(c1ccncc1)=NC(c1cccs1)=N2	inactive: 5.65%
Cc1nc2c(C(=O)NC(C)c3ccccc3)cnn2c(C)c1Cc1ccccc1 (centres undefined)	inactive: 3.62%
COC(=O)c1cc2occc2n1Cc1nc(-c2ccc(C)cc2)oc1C	inactive: -1.21%
CC(C)c1ccc(N2C(=O)CSC23C(=O)N(Cc2ccccc2)c2ccccc23)cc1 (centres undefined)	inactive: 1.57%
Cc1cc(NS(=O)(=O)c2ccc3oc(=O)c4ncn(C)c4c3c2)ccc1Br	inactive: 2%
Cc1ccc(NC(=O)Cn2c(=O)n(Cc3nc(C)no3)c(=O)c3cc4c(cc32)OCO4)cc1	inactive: 2.07%
O=C(/C=C/c1ccccc1Cl)Nc1nc(-c2cccs2)ns1	inactive: 0.178%
COc1ccc(NC(=O)N2CCN(S(=O)(=O)c3ccc4c(ccn4C)c3)CC2)c(OC)c1	inactive: -6.42%
Cc1nc2ccn(Cc3ccco3)c(=O)c2cc1C(=O)N1CCN(c2ccc(F)cc2)CC1	inactive: -4.79%
COc1cccc(CNC(=O)C(C)n2c(=O)cc(-c3ccccc3)c3c(C)nn(C)c32)c1 (centres undefined)	inactive: -7.64%
CN(Cc1ccccc1)C(=O)CSc1nc(-c2ccc(F)cc2)cc(C(F)(F)F)n1	inactive: -11.9%
CCCC(CCC)C(=O)NC1CC(=O)N(c2ccc3c(c2)OCCO3)C1 (centres undefined)	inactive: 2.66%
O=C(Nc1nnc(S(=O)(=O)N2CCc3ccccc32)s1)c1cccc(Cl)c1	inactive: 4.58%
Cc1ccc(/C=C(\C#N)c2nc3ccccc3c(=O)[nH]2)cc1	inactive: 6.32%
COCCOC(=O)c1c(-c2ccccc2)c(-c2ccccc2)nn(C)c1=O	inactive: -4.59%
CCOc1ccc(CC(=O)Nc2c(C(=O)c3ccccc3)oc3ccc(OC)cc23)cc1OCC	inactive: 0.184%

SMILES	activity change, negative = inhibition
CCc1ccccc1NC(=O)Cn1c(=O)n(Cc2ccc(OC)cc2)c(=O)c2oc3ccccc3c21	inactive: 0.791%
Cc1ccc(C)c(N2CCN(C(=O)c3cnn(-c4ccccc4Cl)c3C3CCN(C(=O)OC(C)(C)C)CC3)CC2)c1	inactive: -0.758%
O=C1OC(C(=O)Nc2cc(C(F)(F)F)ccc2Cl)Cc2ccccc21 (centres undefined)	inactive: -4.7%
COc1ccc(Cc2nc3ccc(C(=O)NCc4ccccc4Cl)cc3o2)cc1	inactive: 5.45%
O=C(COc1ccc(Cl)cc1)Nc1ccccc1OCc1cc(=O)n2ccccc2n1	inactive: 9.83%
CCOc1ccc(CC(=O)NCC(c2cccs2)S(=O)(=O)c2ccc(F)c(C)c2)cc1 (centres undefined)	inactive: 0%
CCc1ccc(NC(=O)C(CC)n2c(=O)c(-c3ccccc3NC(C)=O)nc3ccccc32)cc1 (centres undefined)	inactive: -10.5%
Cc1ccc(NC(=O)C2CC(=O)N(c3ccc(OC(C)C)cc3)C2)cc1 (centres undefined)	inactive: 14.5%
CCN(CC)c1ccc(NC(=O)C2CCN(S(=O)(=O)c3cnc[nH]3)CC2)c(C)c1	inactive: -3.24%
CCOC(=O)c1c(C)c(-c2ccccc2)n(CC(=O)NC(CC)Cc2ccccc2)c1C (centres undefined)	inactive: -4.6%
Cc1ccc(Nc2nnc(-c3ccc(C)c(S(N)(=O)=O)c3)c3ccccc23)cc1	inactive: -9.48%
COc1cccc(C(=O)Nc2ccc3oc(-c4cccc5c(Br)cccc45)nc3c2)c1	inactive: -10.3%
COc1ccccc1N1CCN(C(=O)c2cnn(-c3ccc(F)cc3F)c2C2CCNCC2)CC1	inactive: -19.8%
CCc1ccccc1N(C)C(=O)c1ccc2c(=O)n3c(nc2c1)CCCCC3	inactive: 2.35%
COc1ccc(S(=O)(=O)NCC(c2ccc(N(C)C)cc2)N2CCc3ccccc32)cc1OC (centres undefined)	inactive: -0.359%
Cc1cccc(OCC(=O)Nc2cccc3cccnc23)c1C	inactive: -1.85%
CCOC(=O)c1c(NC(=O)c2ccccc2OCC)sc2c1CCC(CC)C2 (centres undefined)	inactive: 4.67%
COc1ccc(N2CCN(C(=O)CCc3c(C)nc4cc(-c5ccc(OC)cc5OC)nn4c3C)CC2)cc1	inactive: 0.637%
CN(C)S(=O)(=O)c1ccc(C(=O)NCCSc2c(-c3ccc(Cl)cc3)[nH]c3ccccc23)cc1	inactive: -5.09%
CCCOc1ccc(C2C(=O)N(C3CCCCCC3)CC(=O)N2CCC)cc1OC (centres undefined)	inactive: 12.4%
Cc1nnc(N2C(=O)c3oc4ccccc4c(=O)c3C2c2ccc(Cl)cc2)s1 (centres undefined)	inactive: -3.96%
Cc1c(C(=O)OC2CCCCCC2)[nH]c2c1C(=O)CC(c1ccc(Cl)cc1)C2 (centres undefined)	inactive: 2.75%
Cc1ccc2c(c1)C(=O)OC(C(=O)Nc1ncc(Cc3ccc(Cl)cc3)s1)C2 (centres undefined)	inactive: 2.65%
Cc1cccc(C)c1-n1ncc(C(=O)NC2CCCC2)c1C1CCN(C(=O)OC(C)(C)C)CC1	inactive: -6.5%

SMILES	activity change, negative = inhibition
CCOc1ccc(NC(=O)NCc2cccn2Cc2ccccc2)cc1	inactive: -21.2%
O=C(c1ccc2c(c1)CCN2S(=O)(=O)c1ccc(Cl)cc1)N1CCN(c2ccc(F)cc2)CC1	inactive: 2.23%
O=C(COc1ccc(Cl)cc1Cl)Nc1cccc2cccnc12	inactive: 0.459%
COc1ccc(Nc2c(-c3ccc(C)o3)nc3cc(C)ccn23)cc1	inactive: -14.7%
Cc1cc(C)cc(NC(=O)Cn2cc(C(=O)c3cccs3)c3ccccc32)c1	inactive: 4.57%
Cc1ccc2oc(-c3ccc(C)c(NC(=O)/C=C/c4ccc(Cl)cc4)c3)nc2c1	inactive: 4.22%
Cc1ccc2[nH]c3c(=O)n(CC(=O)N(CCN(C)C)Cc4ccccc4)ncc3c2c1	inactive: -8.79%
CC(=O)N1CCC(N(Cc2ccco2)C(=O)Nc2ccc(C)c(Cl)c2)CC1	inactive: -13.7%
CCOC(=O)CNC(=O)N1[C@H](c2cccs2)[C@@H](C)C(=O)[C@@H](C)[C@@H]1c1cccs1	inactive: -6.83%
COc1cc(NC(=O)c2nc3nc(C)cc(C(F)F)n3n2)c(OC)cc1Cl	inactive: 0.313%
CCOc1ccc(N2CC(NC(=O)C3CCCCC3)CC2=O)cc1 (centres undefined)	inactive: -4.54%
Cc1ccc(CNC(=O)c2ccc(CN3CC(=O)N4CCCCC4C3=O)cc2)cc1 (centres undefined)	inactive: -4.12%
CCc1nnc(NC(=O)c2nc(SCc3ccccc3F)ncc2Cl)s1	inactive: 2.04%
COc1ccc(S(=O)(=O)N2CCN(c3cccc(C)c3C)CC2)c2ccccc12	inactive: 1.28%
COc1ccc2c(c1)c(=O)c(C(=O)c1ccc(F)cc1)cn2CC(=O)Nc1ccc2c(c1)OCO2	inactive: -9.15%
O=C(CCCCCn1c(=O)c2sccc2n(Cc2ccc(Cl)cc2)c1=O)NCc1ccc2c(c1)OCO2	inactive: -4.76%
Cc1ccc(S(=O)(=O)N(CC(=O)NCCSc2ccc(Cl)cc2)c2ccccc2C)cc1	inactive: -1.68%
COc1ccc(Cl)cc1C(=O)Nc1nnc2n1CCS2	inactive: -5.11%
Cc1ccc(NC(=O)C2CCN(c3nnc(C)c4c(C)n(-c5ccccc5)nc34)CC2)c(Cl)c1	inactive: 0.757%
Cc1cc(Br)ccc1NC(=O)c1sc2nc3n(c(=O)c2c1C)CCCC3	inactive: 8.39%
CC(C)CCNC(=O)Cn1c(-c2cccs2)cc2cc(F)ccc21	inactive: -8.67%
C=Cc1ccc(Cn2c(=O)n(-c3cccc(Cl)c3)c(=O)c3c4c(sc32)CN(C(C)=O)CC4)cc1	inactive: -0.922%
O=C(NCCc1ccc(Cl)cc1)c1ccc2c(c1)N(Cc1ccc(Cl)cc1)C(=O)CS2	inactive: -3.1%
COCCCNC(=O)CCn1c(=O)c2ccccc2n(CC(=O)Nc2cc(Cl)ccc2OC)c1=O	inactive: -18.9%

SMILES	activity change, negative = inhibition
CN1C(C(=O)Nc2cccc(O)c2)=CC(c2ccco2)=NS1(=O)=O	inactive: 0.518%
CCCCN(CC)c1nc(-c2ccccc2F)nc2ccccc12	inactive: -9.06%
Cc1cccc(N2CCn3c2nc2c3c(=O)n(C/C=C/c3ccccc3)c(=O)n2C)c1	inactive: 0.597%
Cc1cc(C)c(NC(=O)Cn2nnc(S(=O)(=O)c3ccc(C)c(C)c3)c2N)c(C)c1	inactive: -10.9%
CC(C)c1ccc(NC(=O)N2c3ccccc3Sc3ccccc32)cc1	inactive: 2.88%
CCN(CC)S(=O)(=O)c1ccc2c(c1)c(=O)c(C(=O)N1CCN(c3cccc(Cl)c3)CC1)cn2C	inactive: -1.81%
Cn1c(=O)oc2cc(S(=O)(=O)NC(Cc3ccccc3)C(=O)NCc3ccccc3Cl)ccc21 (centres undefined)	inactive: -12.6%
CCOc1ccccc1CNC(=O)C1CCN(c2nc3ccccc3nc2C(F)(F)F)CC1	inactive: 8.58%
COc1ccc(-c2n[nH]c3c2cnc2cc(OC)c(OC)cc23)cc1	inactive: 0%
Cc1ccc(CSC2=Nc3ccccc3C3=NC(CC(=O)NCc4ccc5c(c4)OCO5)C(=O)N23)cc1 (centres undefined)	inactive: -1.1%
COc1cc(OC)c(NC(=O)c2ccc3c(c2)N(Cc2ccc(C)cc2)CCS3)cc1Cl	inactive: -4.83%
Cc1cccc(C2N=C(N)Nc3nc4ccccc4n32)c1 (centres undefined)	inactive: -14.4%
COc1ccc(CCCc2nnc(SCC(=O)Nc3ccc(C)cc3)o2)cc1C	inactive: -4.39%
Cc1ccc(-n2ncc(C(=O)NC3CCN(Cc4ccccc4)CC3)c2C2CCN(C(=O)OC(C)(C)C)CC2)cc1C	inactive: -10.9%
O=C(Nc1ccc2nc(SCC(=O)N3CCCc4ccccc43)sc2c1)c1ccc(Cl)cc1	inactive: -1.1%
CCCS(=O)(=O)Nc1cc(-c2cn3ccc(C)cc3n2)ccc1C	inactive: 2.33%
Fc1ccc(-c2nn(-c3ccc(Cl)cc3)c3c2cnc2ccc(F)cc23)cc1	inactive: 0%
CCOc1ccccc1NC(=O)Cn1c(=O)n(Cc2cccs2)c(=O)c2cccnc21	inactive: -6.72%
CC(Sc1nc(=O)cc(N)n1CCc1ccccc1)C(=O)Nc1cccc(Cl)c1 (centres undefined)	inactive: -0.569%
COc1ccc(-n2c(=O)c3ccccc3n(Cc3ccccc3Cl)c2=O)cc1	inactive: 4.95%
COc1ccc(C(=O)Nc2nc3n(n2)C(c2ccc(Cl)cc2)C=C(c2ccccc2)N3)cc1OC (centres undefined)	inactive: -0.293%
Cc1ccc(C)c(CN2C(=O)c3ccccc3S(=O)c3ccc(C(=O)N4CCOCC4)cc32)c1 (centres undefined)	inactive: -1.26%
